Laboratory results from PubChem BioAssay AID1347428 (National Center for Advancing Translational Sciences (NCATS), 2020).
The campaign covered roughly 91,000 compounds. About 290 (0.32%) were called active. Inconclusive means that the source gave no clear call. Such entries were picked first, then a sample of the others. Calls come from the whole dose curve; as a rule, active = well fitted inhibition curve with a large enough effect; inconclusive = small, poorly fitted or top-dose-only effect; inactive = no such curve, though single readings can be large or run the other way. A potency beside an inconclusive call is a rough fit, not a confirmed value.

biological target: Single-stranded DNA cytosine deaminase (Homo sapiens) (UniProt Q9GZX7); test: Primary qHTS assay for inhibitors of Activation Induced Cytidine Deaminase (AID): AID signal; conditions: AID deamination FRET fluorescence, UDG-coupled, 4 h; activity change, negative = inhibition: at 115 µM (top of the series); note: nearly all actives have a fitted effect of over 25% in size
% is set by controls: 0 for no effect and ±100 for the full control effect; potency is the fitted concentration of half-maximal effect; tags give direction and shape of the fitted curve.

UniProt Q9GZX7, sequence (Q9GZX7 whole entry, looked up): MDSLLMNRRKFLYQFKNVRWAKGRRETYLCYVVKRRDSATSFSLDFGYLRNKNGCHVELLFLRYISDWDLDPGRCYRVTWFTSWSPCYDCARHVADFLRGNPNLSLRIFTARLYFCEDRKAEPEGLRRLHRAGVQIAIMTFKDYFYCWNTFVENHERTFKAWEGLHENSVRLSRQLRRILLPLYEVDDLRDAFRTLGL

SMILES	activity change, negative = inhibition	Potency
CC(C)c1ccc(NC(=S)NNC(=O)C(N)=O)cc1	inactive: -10%	
O=C(NCCc1cccs1)c1ccc(Cn2c(SCc3cccc(F)c3)nc3cccnc32)cc1		inconclusive: 17.8 µM [inhibitor, full curve]
Cc1cccc(N2CCN(C(=O)CCS(=O)(=O)c3ccc4c(c3)CC(=O)N4C)CC2C)c1 (configuration not stated)	inactive: -29.6%	
Cc1ccc(C(=O)NC(NC(=O)c2ccc(Cl)cc2)C(Cl)Cl)cc1 (configuration not stated)	inactive: -1.68%	
COC(=O)c1ccc(Cn2c(SCC(=O)N(C)c3ccccc3)nc3ccccc32)cc1		inconclusive: 89.1 µM [inhibitor, single point]
CCCCc1ccc(NC(=O)c2ccc3c(c2)CCN3S(=O)(=O)c2ccccc2)cc1		inconclusive: 15.8 µM [inhibitor, partial curve, poor fit]
CC(C)Cn1cc(C(=O)N2CCN(c3cccc(Cl)c3)CC2)c2c3ccccc3n(C)c2c1=O		inconclusive: 28.2 µM [inhibitor, full curve, poor fit]
CCOc1ccc(Oc2ccc(NC(=O)c3nn(C)c(=O)c4ccccc34)cc2)cc1	inactive: -14.4%	
Cc1[nH]c2ccccc2c1C(C(=O)O)N1CCN(Cc2cccc3ccccc23)CC1 (configuration not stated)	inactive: -3.24%	
CCCCCCc1cc2c(-c3ccccc3)cc(=O)oc2cc1O	inactive: 0.874%	
N#CCSc1sc(=S)sc1SCC#N	inactive: 21.1%	
O=C(Nc1ccc(S(=O)(=O)N(Cc2ccccc2)c2ccccc2)cc1)c1ccc([N+](=O)[O-])cc1		inconclusive: 22.4 µM [inhibitor, single point]
CCOC(=O)c1ccc(CN(Cc2ccc(C)cc2)S(=O)(=O)c2ccc(NC(C)=O)cc2)cc1	inactive: -11.3%	
O=C(Nc1nnc(S(=O)(=O)N2CCCCCC2)s1)c1ccccc1Br		inconclusive: 63.1 µM [inhibitor, partial curve, poor fit]
COc1ccc(C)cc1NC(=O)Cn1c(=O)oc2cc(S(=O)(=O)NCc3ccccc3)ccc21	inactive: 9.18%	
Cc1ccc(Cn2cc(S(=O)(=O)c3ccc(C)cc3)c(=O)c3cc(F)c(N4CCCC4)cc32)cc1		inconclusive: 28.2 µM [inhibitor, partial curve, poor fit]
Cc1c(Cl)cccc1-n1ncc(C(=O)Nc2ccc(F)cc2F)c1C1CCN(C(=O)OC(C)(C)C)CC1		inconclusive: 22.4 µM [inhibitor, full curve, poor fit]
CC1CCC(=NNC(=O)C2CC2)CC1 (configuration not stated)	inactive: -7.96%	
Cc1ccccc1OC(=O)C(c1ccccc1)c1ccccc1	inactive: -8.35%	
CC(=O)N1CCc2c(sc3c2c(=O)n(CCc2ccccc2)c(=O)n3Cc2cccc(C)c2)C1		inconclusive: 89.1 µM [inhibitor, single point]
O=C(N/N=C/c1ccccc1)C1CC1c1ccccc1 (configuration not stated)	inactive: -4.08%	

SMILES	activity change, negative = inhibition	Potency
COc1ccc(NC(=O)Nc2ccccc2OCc2cc(=O)n3ccccc3n2)c(OC)c1		inconclusive: 89.1 µM [inhibitor, single point]
c1ccc(C(NCc2cccnc2)(c2ccccc2)c2ccccc2)cc1		inconclusive: 56.2 µM [inhibitor, partial curve, poor fit]
CCCCCCCc1ccc(C(=O)Nc2ccccc2C)cc1	inactive: 0.543%	
CCCCCCCCCOc1cccc(CNc2cccc3ccccc23)c1		inconclusive: 79.4 µM [inhibitor, partial curve, poor fit]
CC1=C(C(=O)OC(C)(C)C)C(c2ccc(Cl)cc2)NC(=O)N1 (configuration not stated)	inactive: -2.74%	
O=C(NCc1ccccc1)c1ccc2c(c1)nc1n2CCCCC1		inconclusive: 79.4 µM [inhibitor, partial curve, poor fit]
CCCn1c(N2CCN(Cc3ccc(Cl)c(Cl)c3)CC2)nc2c1c(=O)[nH]c(=O)n2C	inactive: -16.9%	
CC(C)(C)c1ccccc1NC(=O)CSc1nc2ncc(Br)cc2[nH]1	inactive: -2.84%	
CC(=O)N1CCCc2cc(S(=O)(=O)N3CCCC(C(=O)N4CCN(c5cc(C)ccc5C)CC4)C3)ccc21 (configuration not stated)		inconclusive: 35.5 µM [inhibitor, partial curve, poor fit]
CCC(=O)N1CCc2cc(S(=O)(=O)CCC(=O)NCc3cccc(OC)c3)ccc21		inconclusive: 3.16 µM [inhibitor, full curve, poor fit]
CCOc1ccc(NC(=O)CCS(=O)(=O)c2ccc(Br)cc2)cc1		inconclusive: 79.4 µM [inhibitor, partial curve, poor fit]
C/C(=C\C=C\c1ccco1)C(=O)c1ccc(Br)cc1	inactive: -12.6%	
O=C(c1ccc(CS(=O)c2ccccc2Cl)o1)N1CCN(c2cccc(Cl)c2)CC1 (configuration not stated)		inconclusive: 44.7 µM [inhibitor, partial curve, poor fit]
CCOc1ccc(-c2cc3nc(C4CCN(C(=O)OC(C)(C)C)CC4)c(C(=O)Nc4ccc(C)cc4C)cn3n2)cc1		inconclusive: 17.8 µM [inhibitor, full curve, poor fit]
COc1ccccc1N1CCN(C(=O)c2cc3ccc4ccc(C)[nH]c4c3n2)CC1		inconclusive: 22.4 µM [inhibitor, full curve, poor fit]
Cc1cccc(NC(=O)Cc2csc(COc3cccc(C)c3)n2)c1		inconclusive: 28.2 µM [inhibitor, single point]
COc1cccc(CNC(=O)CCc2c(C)c3cc4c(C)coc4c(C)c3oc2=O)c1		inconclusive: 89.1 µM [inhibitor, single point]
COc1ccc(NC(=O)/C=C\C(=O)N(c2ccc(C(C)C)cc2)C(C(=O)NCc2ccco2)c2ccc(F)cc2)cc1 (configuration not stated)		inconclusive: 7.94 µM [inhibitor, full curve, poor fit]
Cc1ccc(C)c(Cn2c(=O)cc(C)c3c(C)nn(C)c32)c1		inconclusive: 14.1 µM [inhibitor, full curve, poor fit]
CCOc1ccccc1N(CC)C(=O)c1noc2c1COc1ccc(C)cc1-2		inconclusive: 39.8 µM [inhibitor, single point]
CCN(C(=O)C1CCN(c2ncnc3c2nc2n3CCCCC2)CC1)c1cccc(Cl)c1		inconclusive: 89.1 µM [inhibitor, single point]
